Where “and” joins values, the source holds several entries; their conditions need not be identical. Equal values may be shown once. Screen size: about 340,000 compounds; about 12,000 (3.5%) were called active. This list was built around the results that the source calls inconclusive (neither active nor inactive); the mix of calls is not that of the screen. Calls come from the whole dose curve; as a rule, active = well fitted inhibition curve with a large enough effect; inconclusive = small, poorly fitted or top-dose-only effect, or another doubt; inactive = no such curve, though single readings can be large or run the other way. Where the call is inconclusive, the potency comes from a doubtful curve fit.
Assay: qHTS Assay for Inhibitors of Hepatitis C Virus (HCV)
Details: Huh7.5.1 HCVcc-Cre (HCVcc is cell-culture hepatitis C virus) infection, luciferase reporter, 44 h; series mostly up to 41.8 µM
Outline: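 Cells seeded at 1,000/well and cultured 4 h, then compounds added followed by HCVcc-Cre virus (~0.5 moi). After 44 h further culture, luciferase substrate was added, plates held 15 min at room temperature, and luminescence read for 15 sec.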
Potency is the fitted concentration of half-maximal effect; tags give direction and shape of the fitted curve.

Compound | Potency
COc1ccccc1N1CCN(C(=O)c2cccc(Oc3ccccc3)c2)CC1 | inconclusive: 31.6 µM [inhibitor, single point]
O=C(CC1C(=O)CCCC1=O)c1ccccc1 | inactive
COCCOC(=O)c1c(C)oc2ccc(OCC=C(C)C)cc12 | inconclusive: 10 µM [inhibitor, single point]
CCC1(c2ccccc2)NC(=O)N(CC(=O)Nc2cc(Cl)ccc2N2CCN(C)CC2)C1=O (stereo not drawn) | inconclusive: 31.6 µM [inhibitor, single point]
CC(=O)N1CCN(c2ccc(Nc3nc(C)nc4c3oc3ccccc34)cc2)CC1 | inconclusive: 31.6 µM [inhibitor, single point]
O=C(CN1C(=O)NC(Cc2c[nH]c3ccccc23)C1=O)NCCc1ccccc1 (stereo not drawn) | inactive
Cc1ccc(CN(c2ccc(C(=O)NCc3ccccn3)cc2)S(C)(=O)=O)cc1 | inconclusive: 31.6 µM [inhibitor, single point]
COc1ccc(Nc2ncccc2C(=O)NCc2ccccc2)cc1 | inconclusive: 11.2 µM [inhibitor, single point]
COc1ccc(CNc2nc(NCc3ccc(OC)c(OC)c3)n(C(=O)c3cccs3)n2)cc1OC | inconclusive: 1.78 µM [inhibitor, full curve]
CSc1ccccc1NC(=S)Nc1cccc(C(F)(F)F)c1 | inconclusive: 5.01 µM [inhibitor, single point]
O=C(Nc1ccc(N2CCOCC2)cc1)c1ccc([N+](=O)[O-])o1 | inconclusive: 11.2 µM [inhibitor, single point]
O=C1N[C@@H](c2ccccc2)COC(=O)[C@@H](Cc2ccc(F)cc2)C/C=C\C[C@H]1CC(=O)N(CCO)Cc1ccccc1 | inconclusive: 11.2 µM [inhibitor, single point]
CCOC(=O)c1cnc(SCCc2ccccc2)nc1N | inactive
COc1ccccc1C(=O)Nc1nnc(SCC(=O)NC2CCCC2)s1 | inconclusive: 12.6 µM [inhibitor, single point]
Cn1cc(/C=C2\SC(=S)N(NC(=O)c3cccc(Cl)c3)C2=O)c2ccccc21 | inconclusive: 11.2 µM [inhibitor, partial curve]
CCCCN(CC)c1nc(N)c2c(N)nc(OCC)cc2c1C#N | inconclusive: 10 µM [inhibitor, partial curve]
COc1ccc(S(=O)(=O)N2CCc3ccccc32)cc1C(=O)N1CCC(C)CC1 | inconclusive: 10 µM [inhibitor, partial curve]
CN(C)c1ccc(-[n+]2c(-c3ccccc3)cc(-c3ccccc3)cc2-c2ccccc2)cc1 | active: 7.08 µM
O=c1nc2ccccc2c2n1CC(CN1CCN(Cc3ccccc3)CC1)N2 (stereo not drawn) | inconclusive: 2.82 µM [inhibitor, single point]
CCN1CCN(C(=O)CSc2cc(=O)n(CC)c3ccccc23)CC1 | inconclusive: 12.6 µM [inhibitor, single point]
COc1cc2nc(C)sc2cc1SC | inconclusive: 7.94 µM [inhibitor, partial curve]
Cc1ccc(NC(=O)CSc2nnnn2C)cc1S(=O)(=O)N(C)C | inactive
CCCc1cc(=O)oc2cc(C)cc(OC(C)C(=O)NCCCN3CCOCC3)c12 (stereo not drawn) | inactive

Compound | Potency
COc1ccc(Cc2nc3ccc(C(=O)N(C)CCn4ccnc4)cc3o2)cc1OC | inactive
CN(C)S(=O)(=O)c1cccc(NC(=O)CSc2cccc3cccnc23)c1 | inconclusive: 10 µM [inhibitor, partial curve]
COC(=O)[C@]1(C)N[C@H](c2ccc(-c3ccc(Cl)c(Cl)c3)c(OC)c2)[C@@H]2C(=O)N(C)C(=O)[C@@H]21 | inactive
CCOC(=O)c1ccc(-n2ccnc2)c(NC(=O)c2ccc(C(C)(C)C)cc2)c1 | inconclusive: 31.6 µM [inhibitor, single point]
COc1ccc(-c2nsc3c(N4CCCCC4C)ncnc23)cc1 (stereo not drawn) | inconclusive: 10 µM [inhibitor, partial curve]
CC1CC(C)(C)N(C(=O)CSc2ccc(-c3ccc(F)cc3)nn2)c2ccccc21 (stereo not drawn) | inactive
Clc1ccc(CSc2nnc(CNc3cccc(Cl)c3)o2)cc1 | inconclusive: 31.6 µM [inhibitor, single point]
O=C(CSc1nc2ccsc2c(=O)n1Cc1ccc(C(=O)O)cc1)NCc1ccco1 | inactive
CN(CC(=O)Nc1cccc(F)c1)C(=O)c1ccc(COc2ccccc2)o1 | inactive
Cn1cccc1C1NC(=O)c2c(sc3c2CCC(C(C)(C)C)C3)N1 (stereo not drawn) | inconclusive: 31.6 µM [inhibitor, single point]
COc1cccc(-c2nc(-c3ccccn3)no2)c1 | inconclusive: 31.6 µM [inhibitor, single point]
O=c1c2ccccc2sc2nc(CCl)nn12 | inconclusive: 14.1 µM [inhibitor, partial curve]
C=CCNC(=S)N/N=C(\C)c1ccc(OC)cc1 | inconclusive: 11.2 µM [inhibitor, single point]
COc1ccc(C)cc1NC(=O)CCNS(=O)(=O)c1cccc(C(F)(F)F)c1 | inconclusive: 10 µM [inhibitor, partial curve, poor fit]
S=C(NCCc1ccccn1)Nc1ccc(Cl)cc1Cl | inactive
Cc1cc(NC(=O)C(C)SCC(=O)N(C)CC(=O)Nc2ccccc2C(F)(F)F)no1 (stereo not drawn) | inactive
Cc1ccc(NC(=O)c2cc(S(=O)(=O)c3ccccc3)ccc2Cl)cc1 | inconclusive: 22.4 µM [inhibitor, single point]
CCC(=O)Nc1ccc(N2CCCCC2)c(C(=O)Nc2ccc(OC)cc2)c1 | inconclusive: 10 µM [inhibitor, partial curve]
COc1ccc(OC)c(C=Nc2ccccc2-c2nc3ccccc3[nH]2)c1 | inconclusive: 5.62 µM [inhibitor, single point]
Cc1nnc(-c2ccc(Oc3ccc(C)c(C)c3)c([N+](=O)[O-])c2)o1 | inconclusive: 25.1 µM [inhibitor, single point]
COC(=O)c1cc2sccc2n1Cc1nc(-c2cccc(Cl)c2)oc1C | inactive
O=C(COC(=O)c1cccc(OC(F)F)c1)NC(=O)NC1CCCCC1 | inconclusive: 10 µM [inhibitor, partial curve]
CCOc1ccc(C(=O)Nc2cc(Cl)ccc2-n2cncn2)cc1OC | inconclusive: 3.16 µM [inhibitor, partial curve]

Compound | Potency
O=C(Nc1ccc(NC(=O)C2CC2)cn1)c1ccccc1Cl | inconclusive: 31.6 µM [inhibitor, single point]
Cc1cc(OCc2cc(C(=O)N(C)C(C)c3ccccn3)no2)cc(C)c1Cl (stereo not drawn) | inconclusive: 31.6 µM [inhibitor, single point]
Cc1cccc(N2CCN(CC(=O)NCc3ccccc3)CC2)c1C | inactive
C=C1CCC[C@]2(C)C[C@H]3OC(=O)C(CN[C@@H](C)c4ccccc4)[C@H]3CC12 (stereo partly drawn) | inconclusive: 31.6 µM [inhibitor, single point]
CCc1ccc(CN2CCN(C(=O)c3ccco3)CC2)cc1 | inconclusive: 31.6 µM [inhibitor, single point]
Cc1ccccc1C(=O)Nc1ccc(N2CCCCCC2)cc1 | inconclusive: 10 µM [inhibitor, partial curve]
COc1ccc(CC(=O)NC(C)c2nnc(SCCOc3ccc(OC)cc3)n2C)cc1 (stereo not drawn) | inconclusive: 31.6 µM [inhibitor, single point]
CCOC(=O)c1cn2nc(SCc3ccccc3)nc2nc1C | inactive
COc1ccc(-c2csc(NC(=O)C3CC(=O)N(c4ccc5c(c4)OCCO5)C3)n2)cc1 (stereo not drawn) | inconclusive: 31.6 µM [inhibitor, single point]
CCCCC(=O)N/C(N)=N/c1nc2ccccc2o1 | inconclusive: 31.6 µM [inhibitor, single point]
C/C(=N\NC(=O)Cc1ccc(Cl)cc1)c1ccccn1 | active: 7.08 µM
CC(=O)c1ccc2c(c1)C1C(Cl)C(Sc3ccccc3[N+](=O)[O-])CC1C(C(=O)O)N2 (stereo not drawn) | active: 35.5 µM
O=C(Nc1nc2ccccc2n1CCOc1ccccc1)c1ccco1 | inconclusive: 31.6 µM [inhibitor, single point]
Cc1cccc(-c2noc(CCCC(=O)NCC3CCCO3)n2)c1 (stereo not drawn) | inconclusive: 31.6 µM [inhibitor, single point]
CCOc1ccc(C(C)=O)cc1COC(=O)CNC(=O)C12CC3CC(CC(C3)C1)C2 | inactive
CCOc1ccc(S(=O)(=O)n2cc(-c3ccccc3)c(N)n2)cc1 | inactive
Cc1ccc(S(=O)(=O)c2nnn3c2nc(N2CCOCC2)c2ccccc23)c(C)c1 | inconclusive: 12.6 µM [inhibitor, partial curve]
CCOc1cc(S(=O)(=O)N2CCC(Cc3ccccc3)CC2)c(OCC)cc1-n1cnnn1 | inactive and inconclusive: 8.91 µM [inhibitor, partial curve]
COc1ccc(S(=O)(=O)CCC(=O)Nc2c(C)cccc2C)cc1 | inactive
Cc1ccc(OCCC(=O)Nc2ccc(C)c(S(=O)(=O)N3CCOCC3)c2)cc1 | inconclusive: 22.4 µM [inhibitor, single point]
O=C(Nc1ccccc1N1CCOCC1)C1CCN(S(=O)(=O)c2ccc(Cl)cc2)CC1 | inactive
CN(C)CCC(c1ccc(Cl)cc1)c1ccccn1 (stereo not drawn) | inconclusive: 11.2 µM [inhibitor, partial curve] and inconclusive: 22.4 µM [inhibitor, single point]

From PubChem BioAssay AID651820 (National Center for Advancing Translational Sciences (NCATS), 2012)
